# Measured values taken from PubChem BioAssay (NCATS).
# “And” between values parts separate entries of the source, which are not always exact repeats. Identical values can stand only once. The shares of active, inactive and inconclusive entries below differ from those in the screen. For some assays here: Potencies beside an inconclusive call are fits to weak or partial responses and may not hold up. The source made the active and inactive calls. The call rests on the fitted dose curve; in most records, active means well fitted curve in the direction sought with a large enough effect; inconclusive means small, poorly fitted or top-dose-only effect, or another doubt; inactive means no such curve, though single readings can be large; an effect the other way counts as inactive or inconclusive.
# Experiments:
# [1] = Primary qHTS for inhibitors of nuclear receptor binding SET domain protein 2 (NSD2) in an isogenic RCH-ACV NSD2 p.E1099K mutant (9B) (AID 1645876); further: nearly all actives have a fitted effect of over 70% in size
# [2] = Primary qHTS for inhibitors of nuclear receptor binding SET domain protein 2 (NSD2) in an RCH-ACV wild type WT cells (2C) (AID 1645877); conditions: activity change, negative = cell killing: at 44.9 µM (top of the series); further: nearly all actives have a fitted effect of over 70% in size
# CRL-7250 = normal cell line; experiment: Cytotoxic Profiling of Annotated Libraries Using Quantitative High-Throughput Screening (AID 1296008); conditions: Five cell lines viability, CellTiter-Glo ATP luminescence, 48-72 h; max response: stronger effect = lower value; further: nearly all actives have a fitted effect of over 60% in size; on max response: on the % scale 0 is the no-effect control and ±100 the full control effect
# Summary of the method: (§1)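 Compounds were pin-transferred onto cells and incubated 48 or 72 hr at 37 degree Celsius, 95% humidity. CellTiter-Glo was added, plates sat 10 min at room temperature, then ATP-coupled luminescence was imaged as the viability read-out.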
# HEK293 = experiment: as above; conditions: Five cell lines viability, CellTiter-Glo ATP luminescence, 48-72 h; max response: stronger effect = lower value
# Summary of the method: as §1
# HaCat = experiment: as above; conditions: Five cell lines viability, CellTiter-Glo ATP luminescence, 48-72 h; max response: stronger effect = lower value
# Summary of the method: as §1
# Es-2 = experiment: Primary qHTS to identify gynecologic anti-cancer compounds using libraries of approved drugs and bioactive compounds (AID 1345084); conditions: Gynecologic cancer cell panel viability, ATPlite luminescence, 48 h; series mostly up to 57.5 µM; further: nearly all actives have a fitted effect of over 55% in size; on activity change, negative = cytotoxicity: on the % scale 0 is the no-effect control and ±100 the full control effect
# Summary of the method: (§2)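 Cells, 1,000 per well, plated 16 h, then exposed 48 h at 37 C to compounds. Viability by ATPlite luminescence after 15 min at room temperature.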
# JEG-3 = experiment: as above; conditions: Gynecologic cancer cell panel viability, ATPlite luminescence, 48 h; series mostly up to 57.5 µM
# Summary of the method: as §2
# [3] = P-glycoprotein substrates identified in KB-8-5-11 adenocarcinoma cell line, qHTS therapeutic library screen (AID 1346987); further: nearly all actives have a fitted effect of over 65% in size
# Summary of the method: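 In this qHTS, P-gp-rich KB-8-5-11 cells received library compounds across a concentration range. Viability was quantified by luminescence after 72 h at 37 degree C.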
# [4] = Primary fluorescence-based thiol-reactive (MSTI) qHTS assay for identification of artifact compounds. (AID 1845221);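 further: thiol-reactive compounds lower the probe fluorescence signal; nearly all actives have a fitted effect of over 65% in size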
# Summary of the method: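 MSTI probe at 4 uM final in 2% DMSO/PBS pH 7.4; compounds, 1 h at room temperature in dark. Fluorescence Ex/Em 525/598 nm, normalised to Acetyl-MSTI and MSTI, fitted to 4-parameter Hill.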
# SKOV3 = experiment: Primary qHTS to identify gynecologic anti-cancer compounds using libraries of approved drugs and bioactive compounds (AID 1345084); conditions: Gynecologic cancer cell panel viability, ATPlite luminescence, 48 h; series mostly up to 57.5 µM; further: nearly all actives have a fitted effect of over 55% in size; on activity change, negative = cytotoxicity: on the % scale 0 is the no-effect control and ±100 the full control effect
# Summary of the method: as §2
# CASKI = experiment: as above; conditions: Gynecologic cancer cell panel viability, ATPlite luminescence, 48 h; activity change, negative = cytotoxicity: at 57.5 µM (top of the series)
# Summary of the method: as §2
# Hek293T = experiment: as above; conditions: Gynecologic cancer cell panel viability, ATPlite luminescence, 48 h, control line for the selectivity index; series mostly up to 57.5 µM
# Summary of the method: as §2
# PA-1 = experiment: as above; conditions: Gynecologic cancer cell panel viability, ATPlite luminescence, 48 h; series mostly up to 57.5 µM
# Summary of the method: as §2
# Tov-21-G = experiment: as above; conditions: Gynecologic cancer cell panel viability, ATPlite luminescence, 48 h; activity change, negative = cytotoxicity: at 57.5 µM (top of the series)
# Summary of the method: as §2
# KB-3-1 = experiment: Cytotoxic Profiling of Annotated Libraries Using Quantitative High-Throughput Screening (AID 1296008); conditions: Five cell lines viability, CellTiter-Glo ATP luminescence, 48-72 h; max response: stronger effect = lower value; further: nearly all actives have a fitted effect of over 60% in size; on max response: on the % scale 0 is the no-effect control and ±100 the full control effect
# Summary of the method: as §1
# NIH3T3 = experiment: as above; conditions: Five cell lines viability, CellTiter-Glo ATP luminescence, 48-72 h; max response: stronger effect = lower value
# Summary of the method: as §1
# C33A = experiment: Primary qHTS to identify gynecologic anti-cancer compounds using libraries of approved drugs and bioactive compounds (AID 1345084); conditions: Gynecologic cancer cell panel viability, ATPlite luminescence, 48 h; series mostly up to 57.5 µM; further: nearly all actives have a fitted effect of over 55% in size
# Summary of the method: as §2
# CAOV3 = experiment: as above; conditions: Gynecologic cancer cell panel viability, ATPlite luminescence, 48 h; series mostly up to 57.5 µM
# Summary of the method: as §2
# OV90 = experiment: as above; conditions: Gynecologic cancer cell panel viability, ATPlite luminescence, 48 h; series mostly up to 57.5 µM
# Summary of the method: as §2
# Tov112D = experiment: as above; conditions: Gynecologic cancer cell panel viability, ATPlite luminescence, 48 h; activity change, negative = cytotoxicity: at 57.5 µM (top of the series)
# Summary of the method: as §2
# Potency means the concentration at half of the fitted maximal effect; tags describe the fitted curve by direction and shape.
smiles,measurement,setting,value
O=C(NC[C@H](O)CN1CCc2ccccc2C1)c1cc(NC2COC2)ncn1,Potency,[1],"inactive and inconclusive: 1.66 µM [inhibitor, full curve]"
same,Potency,[2],"inconclusive: 5.15 µM [inhibitor, partial curve] and inconclusive: 5.25 µM [inhibitor, partial curve]"
same,max response,CRL-7250,inactive: -6.51% and inactive: -13.6%
same,Potency,HEK293,"inconclusive: 1.66 µM [inhibitor, full curve, poor fit]"
same,Potency,HaCat,"inconclusive: 37.1 µM [inhibitor, single point]"
same,Potency,Es-2,inactive
same,Potency,JEG-3,inactive
COc1cc(/C=C/C(=O)NCCn2c(C(F)(F)F)cc3ccccc32)cc(OC)c1OC,Potency,[3],"inconclusive: 6.51 µM [inhibitor, partial curve]"
same,Potency,[4],inactive
same,Potency,CRL-7250,"inconclusive: 20.6 µM [inhibitor, single point]"
same,Potency,HEK293,"inconclusive: 18.4 µM [inhibitor, single point]"
same,max response,HaCat,inactive: -29.1%
same,Potency,SKOV3,"inconclusive: 22.4 µM [cytotoxic, single point]"
C=C(C)C1CCC2(C(=O)O)CCC3(C)C(CCC4C5(C)C(C=O)C(O)C(C)(C)C5CCC43C)C12 (configuration not stated),Potency,[2],"inconclusive: 14.2 µM [inhibitor, partial curve, poor fit]"
same,max response,CRL-7250,inactive: -7.47%
same,Potency,HEK293,"inconclusive: 14.2 µM [inhibitor, single point]"
same,outcome,HaCat,inactive
COc1cc2ncnc(Nc3ccc(O)c(Br)c3)c2cc1OC,Potency,[2],active: 13 µM and active: 14.8 µM
same,Potency,[4],"inconclusive: 16.8 µM [inhibitor, partial curve]"
same,Potency,CRL-7250,"inconclusive: 20.6 µM [inhibitor, single point]"
same,Potency,HEK293,"inconclusive: 29.1 µM [inhibitor, single point]"
same,Potency,HaCat,active: 3.66 µM
same,Potency,CASKI,"inconclusive: 15.8 µM [cytotoxic, single point]"
same,Potency,Hek293T,inactive
same,Potency,PA-1,"inconclusive: 25.1 µM [cytotoxic, single point]"
same,Potency,SKOV3,"inconclusive: 22.4 µM [cytotoxic, single point]"
same,Potency,Tov-21-G,"inconclusive: 11.2 µM [cytotoxic, partial curve]"
CCN(c1cc(-c2ccc(CN3CCOCC3)cc2)cc(C(=O)NCc2c(C)cc(C)[nH]c2=O)c1C)C1CCOCC1,Potency,[3],"inconclusive: 23.1 µM [inhibitor, partial curve, poor fit]"
same,Potency,[1],"inconclusive: 8.17 µM [inhibitor, partial curve]"
same,Potency,[2],"inconclusive: 8.17 µM [inhibitor, partial curve] and inconclusive: 37.2 µM [inhibitor, single point]"
same,max response,CRL-7250,inactive: -21.9%
same,Potency,HEK293,"inconclusive: 29.1 µM [inhibitor, single point]"
same,Potency,HaCat,"inconclusive: 0.0058 µM [inhibitor, full curve, poor fit]"
C/C(=C1\CCOC(=O)S1)N(C=O)Cc1cnc(C)nc1N,max response,CRL-7250,inactive: -21.8%
same,max response,HEK293,inactive: -12.5%
same,max response,HaCat,inactive: 0.182%
COc1ccc2cc1Oc1ccc(cc1)C[C@H]1c3c(cc4c(c3Oc3cc5c(cc3OC)CCN(C)[C@@H]5C2)OCO4)CCN1C,Potency,[3],"inconclusive: 13 µM [inhibitor, partial curve] and active: 20.6 µM"
same,Potency,[4],inactive
same,Potency,CRL-7250,"inconclusive: 33.5 µM [inhibitor, single point]"
same,Potency,HEK293,active: 10.6 µM and active: 7.31 µM
same,Potency,KB-3-1,"inconclusive: 29.1 µM [inhibitor, single point]"
same,Potency,NIH3T3,"inconclusive: 29.9 µM [inhibitor, single point] and inconclusive: 23.1 µM [inhibitor, single point]"
same,Potency,C33A,inactive
same,Potency,CAOV3,"inconclusive: 31.6 µM [cytotoxic, single point] and inconclusive: 22.4 µM [cytotoxic, single point]"
same,Potency,Es-2,"inconclusive: 22.4 µM [cytotoxic, single point]"
same,Potency,Hek293T,"inconclusive: 10 µM [cytotoxic, partial curve, poor fit]"
same,Potency,JEG-3,"inconclusive: 20 µM [cytotoxic, partial curve]"
same,Potency,PA-1,"active: 28.2 µM and inconclusive: 39.8 µM [cytotoxic, single point]"
same,Potency,SKOV3,"inconclusive: 14.1 µM [cytotoxic, single point] and inconclusive: 20 µM [cytotoxic, single point]"
O=C(C(c1ccccc1)c1ccccc1)N1CCN(CC(O)COc2cccc3ncccc23)CC1 (configuration not stated),Potency,[3],inactive
same,Potency,[1],"inconclusive: 25.8 µM [inhibitor, single point] and inconclusive: 26.3 µM [inhibitor, single point]"
same,Potency,CRL-7250,"inconclusive: 20.6 µM [inhibitor, single point]"
same,Potency,HEK293,active: 6.51 µM
same,max response,HaCat,inactive: -24.2%
same,Potency,OV90,"inconclusive: 0.794 µM [rising, partial curve, poor fit]"
same,Potency,Tov112D,inactive
Cc1ccc(N2CCN(S(=O)(=O)N3CCCCC3)CC2)c(C)c1,Potency,[1],"inconclusive: 18.3 µM [inhibitor, partial curve, poor fit]"
same,"activity change, negative = cell killing",[2],inconclusive: -33.1% [inhibitor]
same,Potency,CRL-7250,"inconclusive: 29.1 µM [inhibitor, single point]"
same,Potency,HEK293,"inconclusive: 25.9 µM [inhibitor, single point]"
same,outcome,HaCat,inactive
same,Potency,SKOV3,inactive
